# Test results as given in a collection of fitness landscapes (doi:10.1126/science.1257360).
# The other results are listed elsewhere or left out.
# B1: PhoQ; a variant is named by its letters at X, in order, P23837 (parent)
# chain: MKKLLRLFFPLSLRVRFLLATAAVVLVLSLAYGMVALIGYSVSFDKTTFRLLRGESNLFYTLAKWENNKLHVELPENIDKQSPTMTLIYDENGQLLWAQRDVPWLMKMIQPDWLKSNGFHEIEADVNDTSLLLSGDHSIQQQLQEVREDDDDAEMTHSVAVNVYPATSRMPKLTIVVVDTIPVELKSSYMVWSWFIYVLSANLLLVIPLLWVAAWWSLRPIEALAKEVRELEEHNRELLNPATTRELTSLVRNLNRLLKSERERYDKYRTTLTDLTHSLKTPLXXLQXXLRSLRSEKMSVSDAEPVMLEQISRISQQIGYYLHRASMRGGTLLSRELHPVAPLLDNLTSALNKVYQRKGVNISLDISPEISFVGEQNDFVEVMGNVLDNACKYCLEFVEISARQTDEHLYIVVEDDGPGIPLSKREVIFDRGQRVDTLRPGQGVGLAVAREITEQYEGKIVAGESMLGGARMEVIFGRQHSAPKDE
# Variants of: B1
# Assay: enrichment ratio after two sorts for PhoP signalling (ratio (wild type AVST 3.29)); higher = more functional
# Conditions: with PhoP (E. coli)
row,Variant,enrichment ratio
1,INPG,≤ 0.25
2,PDFM,≤ 0.25
3,ACSQ,2.76
4,SGCD,≤ 0.25
5,ENRP,≤ 0.25
6,EIAC,≤ 0.25
7,PPYA,≤ 0.25
8,LFIT,≤ 0.25
9,ISFN,≤ 0.25
10,FTQI,≤ 0.25
11,KETF,≤ 0.25
12,KSDI,≤ 0.25
13,YQPF,≤ 0.25
14,NQPC,≤ 0.25
15,SDGP,≤ 0.25
16,IGSP,≤ 0.25
17,TKDQ,≤ 0.25
18,PVNH,≤ 0.25
19,YTHI,≤ 0.25
20,HPVF,≤ 0.25
21,FAPV,≤ 0.25
22,AIIY,≤ 0.25
23,SIVD,≤ 0.25
24,VRLD,≤ 0.25

row,Variant,enrichment ratio
1,FCGK,≤ 0.25
2,TVST,7.94
3,ELIY,≤ 0.25
4,IFYA,≤ 0.25
5,GEVF,≤ 0.25
6,ARYK,≤ 0.25
7,FEWN,≤ 0.25
8,HGTQ,≤ 0.25
9,SPVR,≤ 0.25
10,GQIQ,14.9
11,IWWY,≤ 0.25
12,PGGP,≤ 0.25
13,EEGL,≤ 0.25
14,MARY,≤ 0.25
15,PCIG,≤ 0.25
16,YRGM,≤ 0.25
17,FLVN,≤ 0.25
18,WQRD,≤ 0.25
19,WKFE,≤ 0.25
20,TFPQ,≤ 0.25
21,VDMM,≤ 0.25
22,MSGN,≤ 0.25
23,HESN,≤ 0.25
24,LDNW,≤ 0.25

row,Variant,enrichment ratio
1,HNCN,≤ 0.25
2,PCYG,≤ 0.25
3,AGLG,9.25
4,NFEE,≤ 0.25
5,SLTA,1.44
6,AREL,≤ 0.25
7,GKTP,≤ 0.25
8,KKSR,≤ 0.25
9,KIMC,≤ 0.25
10,LYFT,≤ 0.25
11,AAEL,≤ 0.25
12,KMPR,≤ 0.25
13,RKDI,≤ 0.25
14,HHPH,≤ 0.25
15,MIIP,≤ 0.25
16,NAVN,≤ 0.25
17,GMKM,≤ 0.25
18,YWIS,≤ 0.25
19,ALQV,≤ 0.25
20,TVAR,7.02
21,KRRN,≤ 0.25
22,HEYD,≤ 0.25
23,STWS,≤ 0.25
24,VYQG,≤ 0.25

row,Variant,enrichment ratio
1,MDTN,≤ 0.25
2,MITG,≤ 0.25
3,WTFA,≤ 0.25
4,MDKD,≤ 0.25
5,ITCS,≤ 0.25
6,GLHV,≤ 0.25
7,RIWD,≤ 0.25
8,TFLP,≤ 0.25
9,PADT,≤ 0.25
10,NKYK,≤ 0.25
11,SGMG,0.699
12,WCFN,≤ 0.25
13,MKNQ,≤ 0.25
14,WEFL,≤ 0.25
15,KVDN,≤ 0.25
16,KSDG,≤ 0.25
17,TTPI,4.3
18,NEHH,≤ 0.25
19,RDGH,≤ 0.25
20,REGA,≤ 0.25
21,QVFI,≤ 0.25
22,PHLL,≤ 0.25
23,EHQR,≤ 0.25
24,QTFM,7.68

row,Variant,enrichment ratio
1,MFIV,≤ 0.25
2,PHPT,≤ 0.25
3,ECMH,≤ 0.25
4,HSQV,≤ 0.25
5,MDMS,≤ 0.25
6,MMPL,≤ 0.25
7,NIMA,≤ 0.25
8,FQGC,≤ 0.25
9,NKVC,≤ 0.25
10,KLWE,≤ 0.25
11,TNVR,≤ 0.25
12,SRRD,1.13
13,GLQG,≤ 0.25
14,VCIR,≤ 0.25
15,SLMC,3.3
16,FRTR,≤ 0.25
17,YRLA,≤ 0.25
18,MAKT,≤ 0.25
19,STSG,8.56
20,HFAG,≤ 0.25
21,RRRS,≤ 0.25
22,QQFF,5.6
23,DHAY,≤ 0.25
24,RLEN,≤ 0.25

row,Variant,enrichment ratio
1,ESFE,≤ 0.25
2,FQMI,≤ 0.25
3,HQQY,≤ 0.25
4,PAEY,≤ 0.25
5,DTYE,≤ 0.25
6,SFLG,10.9
7,HKIG,≤ 0.25
8,ERKL,≤ 0.25
9,QNLF,≤ 0.25
10,LCTY,≤ 0.25
11,EQYR,≤ 0.25
12,HLKP,≤ 0.25
13,VHGF,≤ 0.25
14,FRIT,≤ 0.25
15,TMFR,≤ 0.25
16,PVPH,≤ 0.25
17,WERR,≤ 0.25
18,IADF,≤ 0.25
19,FAKN,≤ 0.25
20,AWYA,≤ 0.25
21,ASNV,3.04
22,QDNN,≤ 0.25
23,IKVV,≤ 0.25
24,WVFE,≤ 0.25

row,Variant,enrichment ratio
1,LCLL,0.451
2,KITI,≤ 0.25
3,YPYK,≤ 0.25
4,GSHV,≤ 0.25
5,IVMC,≤ 0.25
6,AQQV,≤ 0.25
7,NCHG,≤ 0.25
8,YKTH,≤ 0.25
9,SWPI,≤ 0.25
10,EIII,≤ 0.25
11,RVMF,≤ 0.25
12,TDTF,≤ 0.25
13,NILK,≤ 0.25
14,RECH,≤ 0.25
15,WMVY,≤ 0.25
16,MCGR,≤ 0.25
17,ATCC,1.99
18,WKPH,≤ 0.25
19,WNGT,≤ 0.25
20,IRQS,≤ 0.25
21,FKTG,≤ 0.25
22,ISHD,≤ 0.25
23,WNKS,≤ 0.25
24,RCDQ,≤ 0.25

row,Variant,enrichment ratio
1,AMCD,≤ 0.25
2,IMQL,≤ 0.25
3,VSKI,≤ 0.25
4,ICAM,17.4
5,KHCM,≤ 0.25
6,QPRH,≤ 0.25
7,YTIH,≤ 0.25
8,TNAE,≤ 0.25
9,IWKV,≤ 0.25
10,LICC,≤ 0.25
11,NGGK,≤ 0.25
12,THSS,8.94
13,PNFP,≤ 0.25
14,FFKQ,≤ 0.25
15,NEGC,≤ 0.25
16,YNCE,≤ 0.25
17,VMQW,≤ 0.25
18,WMIG,≤ 0.25
19,IRYG,≤ 0.25
20,RKTN,≤ 0.25
21,IRQI,≤ 0.25
22,FCQI,≤ 0.25
23,TICR,0.409
24,HFSM,≤ 0.25

row,Variant,enrichment ratio
1,FWVW,≤ 0.25
2,WKSM,≤ 0.25
3,TYQP,≤ 0.25
4,YTIY,≤ 0.25
5,VFLH,≤ 0.25
6,HDFR,≤ 0.25
7,NFFY,≤ 0.25
8,YKEA,≤ 0.25
9,VAHD,≤ 0.25
10,MGTQ,≤ 0.25
11,VHQI,≤ 0.25
12,ESML,≤ 0.25
13,PGIN,≤ 0.25
14,MMLR,≤ 0.25
15,AYCF,≤ 0.25
16,FYNG,≤ 0.25
17,EDPC,≤ 0.25
18,ILVY,≤ 0.25
19,KLEE,≤ 0.25
20,RHIS,≤ 0.25
21,QQLR,≤ 0.25
22,QPCA,≤ 0.25
23,TLVR,≤ 0.25
24,WEFE,≤ 0.25

row,Variant,enrichment ratio
1,RMPD,≤ 0.25
2,SMYR,≤ 0.25
3,WKIH,≤ 0.25
4,DTTP,≤ 0.25
5,GNVY,2.93
6,PMQR,≤ 0.25
7,PATL,≤ 0.25
8,AMAV,5.5
9,HQHD,≤ 0.25
10,RQFP,≤ 0.25
11,QYHP,≤ 0.25
12,HWFH,≤ 0.25
13,MTGH,2.68
14,RGLY,≤ 0.25
15,AGGM,≤ 0.25
16,TNHR,≤ 0.25
17,VAHW,≤ 0.25
18,HQHP,≤ 0.25
19,DCQK,≤ 0.25
20,YYRR,≤ 0.25
21,SSFC,0.48
22,RSGL,≤ 0.25
23,ANCR,11
24,MRNS,≤ 0.25

row,Variant,enrichment ratio
1,IQIW,≤ 0.25
2,RSIF,≤ 0.25
3,NSGF,≤ 0.25
4,GGAP,≤ 0.25
5,KQRR,≤ 0.25
6,NRTL,≤ 0.25
7,DRFT,≤ 0.25
8,HVLV,≤ 0.25
9,FGTF,≤ 0.25
10,WQRS,≤ 0.25
11,LAQQ,≤ 0.25
12,NAKI,≤ 0.25
13,KIVA,≤ 0.25
14,IQAI,≤ 0.25
15,HIKS,≤ 0.25
16,ESIQ,≤ 0.25
17,IFAP,≤ 0.25
18,DRTH,≤ 0.25
19,GHNM,≤ 0.25
20,HDCW,≤ 0.25
21,AGIH,16.3
22,YYLV,≤ 0.25
23,RDRY,≤ 0.25
24,VMQE,≤ 0.25

row,Variant,enrichment ratio
1,DGHD,≤ 0.25
2,NRIQ,≤ 0.25
3,VSGT,≤ 0.25
4,HLLQ,≤ 0.25
5,DKQS,≤ 0.25
6,WTHD,≤ 0.25
7,FILD,≤ 0.25
8,VQQN,≤ 0.25
9,ACDR,≤ 0.25
10,MWYP,≤ 0.25
11,HPDF,≤ 0.25
12,GHNY,≤ 0.25
13,SEWD,≤ 0.25
14,SFEF,≤ 0.25
15,YNTP,≤ 0.25
16,KNCI,≤ 0.25
17,AWHL,≤ 0.25
18,QTCE,≤ 0.25
19,LHRC,≤ 0.25
20,MNLT,3.66
21,PIWE,≤ 0.25
22,QTQH,≤ 0.25
23,YREY,≤ 0.25
24,NANS,≤ 0.25

row,Variant,enrichment ratio
1,QGSN,20.2
2,TGVI,0.552
3,GTNW,≤ 0.25
4,LSSR,≤ 0.25
5,MCMP,≤ 0.25
6,PPFH,≤ 0.25
7,FPYA,≤ 0.25
8,MQKR,≤ 0.25
9,SEAD,5.48
10,WIHG,≤ 0.25
11,LIEV,≤ 0.25
12,QKLS,≤ 0.25
13,CVFP,≤ 0.25
14,FCSY,≤ 0.25
15,EPKY,≤ 0.25
16,QGKW,≤ 0.25
17,VTFH,≤ 0.25
18,HYCS,≤ 0.25
